In PubChem BioAssay AID1159614 (National Center for Advancing Translational Sciences (NCATS), 2016):
Screen size: about 45,000 compounds; about 65 (0.1%) were called active. Calls come from the whole dose curve; as a rule, active = well fitted activation curve with a large enough effect; inconclusive = small, poorly fitted or top-dose-only effect; inactive = no such curve, though single readings can be large or run the other way. Some of the results follow.

Each compound was assayed against Galactocerebrosidase (Homo sapiens) (UniProt P54803) (assay: A Novel Cell-Based Assay to Identify Small Molecules for B -Galactocerebrosidase). Conditions: 145M-Twi-hGALC-G270D cells (Twitcher mouse brain line with human GALC G270D), HMU-beta-Gal fluorescence, 48 h; series mostly up to 57.5 µM; activation: at the top concentration.
Procedure, shortened: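 Mutant human GALC (G270D), stably expressed in a Twitcher mouse brain cell line lacking endogenous GALC, is measured in live-treated cells via 6-hexadecanoylamino-4-methylumbelliferyl-β-galactoside hydrolysis (0.1 mM final, pH 5.2) with fluorescent detection.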
Note: 0% is about no effect; nearly all actives have a fitted effect of over 65% in size.

Chain of UniProt P54803 (P54803 whole entry, looked up): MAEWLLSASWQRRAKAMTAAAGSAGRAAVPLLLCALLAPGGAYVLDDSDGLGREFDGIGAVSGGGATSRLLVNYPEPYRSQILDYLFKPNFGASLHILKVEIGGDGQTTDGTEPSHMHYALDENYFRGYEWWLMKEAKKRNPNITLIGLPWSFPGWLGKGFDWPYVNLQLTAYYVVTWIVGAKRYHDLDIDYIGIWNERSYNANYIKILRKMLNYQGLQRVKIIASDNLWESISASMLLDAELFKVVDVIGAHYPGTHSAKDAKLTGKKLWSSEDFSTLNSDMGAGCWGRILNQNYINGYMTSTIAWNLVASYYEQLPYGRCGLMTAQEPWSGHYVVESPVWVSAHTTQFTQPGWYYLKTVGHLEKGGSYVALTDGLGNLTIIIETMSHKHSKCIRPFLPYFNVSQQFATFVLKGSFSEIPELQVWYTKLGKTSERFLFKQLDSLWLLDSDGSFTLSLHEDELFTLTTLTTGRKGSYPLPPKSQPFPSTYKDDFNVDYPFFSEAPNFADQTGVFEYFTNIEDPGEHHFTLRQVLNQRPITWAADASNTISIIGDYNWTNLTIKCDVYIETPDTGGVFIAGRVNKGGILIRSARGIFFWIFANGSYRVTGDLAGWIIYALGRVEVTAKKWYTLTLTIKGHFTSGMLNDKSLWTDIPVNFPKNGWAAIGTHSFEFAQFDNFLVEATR

activation, inactive:
COc1cccc(C(=O)c2sc(Nc3ccc(F)c(Cl)c3)nc2N)c1 -37.4%, CCC(C(=O)OC)n1nnc2sc(-c3ccccc3)cc2c1=O (stereo not given) -10%, COc1ccc2c(c1)c(=O)c(C(=O)c1ccc(C)cc1)cn2Cc1ccccc1F -5.05%, CCOC(=O)c1ccc(CN(Cc2ccc(Br)cc2)S(=O)(=O)c2cccc(C(F)(F)F)c2)cc1 -0.868%, O=S(=O)(Nc1cccc(-c2ccc(N3CCOCC3)nn2)c1)c1cc(C(F)(F)F)ccc1Cl -7.32%, COc1ccccc1NC(=O)CN1CCN(CC(=O)Nc2ccc(F)c(F)c2)CC1 -12.5%, COc1ccc(C2c3c(-c4ccccc4O)n[nH]c3C(=O)N2CCc2ccccc2)cc1 (stereo not given) -5.99%, COC(=O)c1ccc(Cl)cc1NC(=O)Nc1nnc(N(C)Cc2ccccc2)s1 -9%, CN(c1ccccc1)C(CNS(=O)(=O)c1ccccc1)c1ccccc1 (stereo not given) -8.19%, O=C(CN1C(=O)C2CCCCN2c2ccc(C(=O)N3CCCC3)cc21)NCc1ccccc1F (stereo not given) -12.6%, CCCCN(CC)CCNc1ncnc2onc(-c3ccc(Cl)cc3)c12 3.96%, Cc1ccc(N2C(=O)CS(=O)(=O)C23C(=O)N(Cc2ccccc2F)c2ccccc23)cc1Cl (stereo not given) -12%, O=C(COc1ccccc1Cl)Nc1ccccc1OCc1cc(=O)n2ccccc2n1 4.49%, CNS(=O)(=O)c1cn(CC(=O)N2CCN(c3ccc(C)cc3C)CC2)cc1S(=O)(=O)NC -10.7%, CC(C)COc1ccc(Nc2ncnc3ccc(Br)cc23)cc1 29.3%, COc1ccc(Cc2nnc(C(=O)NCCCN3CCN(c4ccccc4F)CC3)o2)cc1OC -11.6%, Cc1cccc(NC(=O)NC2COc3ccccc3C2)c1C (stereo not given) -13.6%, Cc1ccc(CN(Cc2ccco2)C(=O)c2cccc(C)c2)cc1 -12.9%, CNS(=O)(=O)c1cn(CC(=O)Nc2cccc(C(F)(F)F)c2)cc1S(=O)(=O)NC -13.8%, COC(=O)c1sccc1S(=O)(=O)N(CC(=O)NCc1ccc(F)cc1)c1ccc(C)c(C)c1 -2.02%, COc1ccc(CNc2nc(-c3ccco3)nn2C(=O)CC(C)C)cc1 -22.6%, CCOC(=O)c1[nH]c2ccccc2c1NC(=O)c1ccccc1OC -2.84%, CCc1ccc(CNC(=O)C(CC)n2nc(C)c3c(C)n(-c4ccccc4)nc3c2=O)cc1 (stereo not given) -11.4%, Cc1cc(S(=O)(=O)n2ccnc2C(C)C)cc([N+](=O)[O-])c1C 4.58%, CCCNc1ccc(-c2nc(-c3ccco3)no2)cc1[N+](=O)[O-] -11.8%, O=C(Nc1cc(C(F)(F)F)ccc1Cl)c1ccc2c(c1)CCN2S(=O)(=O)c1ccccc1 -10.7%, Cc1ccc(CCNC(=O)c2ccc(CNS(=O)(=O)c3ccc(C)cc3)cc2)cc1 -21.6%, Cc1ccc(Cl)cc1N1CCN(C(=O)c2cn(CC(C)C)c(=O)c3c2c2ccccc2n3C)CC1 -7.56%, CCOC(=O)c1nc(Nc2ccc(Cl)cc2)c2c(C)noc2n1 -13.7%, COc1cccc(N2CC(NC(=O)C3CCCCC3)CC2=O)c1 (stereo not given) -15.1%, Cc1cn2c(=O)cc(COc3cccc(NC(=O)c4ccccc4Cl)c3)nc2s1 -12%, COc1ccc(N2CCN(C(=O)c3ccc4c(c3)N(Cc3cc(C)ccc3C)C(=O)c3ccccc3S4=O)CC2)cc1 (stereo not given) -16.4%, Cc1cc(C)c(Cn2c(=O)n(-c3ccccc3Cl)c(=O)c3c(C)c(C(=O)N(C)C)sc32)c(C)c1 1.95%, CCC(C)(C)C(=O)O[C@H]1C[C@@H](C)C=C2C=C[C@H](C)[C@H](CC[C@@H]3C[C@@H](O)CC(=O)O3)[C@H]21 -15.1%, Cc1ccc(Oc2nc3c(c(=O)n(Cc4ccccc4Cl)c(=O)n3C)n2C)cc1C -8.55%, COc1ccc(-c2cc3nc(C)c(CCC(=O)Nc4ccc(F)cc4F)c(C)n3n2)c(OC)c1 -15.8%, CC(Oc1ccccc1)C(=O)Nc1nnc(S(=O)(=O)N2CCCCCC2)s1 (stereo not given) -9.09%, COc1ccc(C(=O)Nc2nnc(S(=O)(=O)N3CCN(c4ccc(C)cc4)CC3)s2)cc1 -7.59%, Cc1ccccc1C(=O)Nc1cccc(-c2cn3cccnc3n2)c1 -22.6%, Cc1cc(=O)n(CC(=O)N2CCN(c3ccc(F)cc3)CC2)c2c1c(C)nn2C -38.2%, COc1ccc(NCc2cc3ccc(OC)cc3n(CC(=O)Nc3cc(Cl)ccc3C)c2=O)cc1 -15.7%, CC(=O)c1ccc(N2CCN(C(=O)CCS(=O)(=O)c3ccc4c(c3)oc(=O)n4C)CC2)cc1 -11.4%, CCOc1ccc(N2CC(C(=O)NCc3nnnn3-c3ccc(C)c(C)c3)CC2=O)cc1 (stereo not given) -18.5%, Nc1c(-c2nc(-c3ccc(F)cc3)cs2)c2ccccn2c1C(=O)c1ccc2c(c1)OCO2 -7.63%, CCOc1ccc(NS(=O)(=O)c2ccc3[nH]cc(C(=O)NCC4CCCO4)c(=O)c3c2)cc1 (stereo not given) -10.8%, CCc1cccc(NC(=O)CN(C)S(=O)(=O)c2cccc3cccnc23)c1 -6.71%, CC1CCc2c(sc(NC(=O)c3cc4nc(-c5ccc(Cl)cc5)cc(C(F)(F)F)n4n3)c2C#N)C1 (stereo not given) -16.5%, Nc1ccc(C(=O)O)c(O)c1 -12.6%, CCSc1ncc(Cl)c(C(=O)Nc2sc3c(c2C(=O)NC)CCCC3)n1 -22.4%, CC(Oc1ccccc1F)C(=O)Nc1ccc(-c2nc3ccccc3s2)cc1 (stereo not given) 19.8%, Cc1ccc(Cl)cc1NC(=O)CN1C(=O)C(C)(C)c2cc(S(=O)(=O)N3CCCCC3)ccc21 -9.21%, CC(=O)c1cccc(NC(=O)c2cc3c(s2)-c2c(C)cccc2OC3)c1 4.86%, COc1ccc(S(=O)(=O)c2cnc(SCC(=O)Nc3cc(F)ccc3C)[nH]c2=O)cc1Cl -0.751%, CCC1CCCCN1C(=O)c1sc(-n2nc(C)c(Cc3ccccc3)c2C)nc1C (stereo not given) -27.4%, CCc1ccc2c(c1)NC(c1ccc(OC)cc1)=NC(c1ccncc1)=N2 -12.6%, CCOC(=O)c1ccc(OC(=O)c2cn(-c3cccc(OC)c3)c(=O)c3ccccc23)cc1 1.53%, COc1cc(/C=C/c2nc(C#N)c(N3CCC(C)CC3)o2)cc(OC)c1OC -3.5%, CCOc1ccccc1NC(=O)C(C)N(c1ccccc1)S(C)(=O)=O (stereo not given) 2.31%, CC(C)CCN(C(=O)Nc1ccc(Cl)c(Cl)c1)C(C)c1cccs1 (stereo not given) -13.2%, COc1cccc(OC(=O)CSc2nnc(-c3ccc4c(c3)OCO4)o2)c1 -0.866%
